This experiment concerns adjuvant arthritis in rats. The format is in vivo, female Sprague-Dawley rats. To be noted: Rattus norvegicus, po, 552 h, orally once a day for 23 days, read-out: Inhibition of Secondary Lesion (uninjected paw; %); for inhibition in vivo at 1 mg/kg: dose level 1.0 mg/kg; for inhibition in vivo at 3.2 mg/kg: dose level 3.2 mg/kg; for inhibition in vivo at 10 mg/kg: dose level 10.0 mg/kg.

The structures appear in SMILES notation.

As for `CC(=O)c1ccc(NS(C)(=O)=O)c(Oc2ccc(F)cc2F)c1` [Example 1, 4'-acetyl-2'-(2,4-difluorophenoxy)methanesulfonanilide], the inhibition in vivo at 1 mg/kg is 50%.

On to `CS(=O)(=O)Nc1ccc(C#N)cc1Oc1ccc(F)cc1F` [Example 3, 4'-Cyano-2'-(2,4-difluorophenoxy)methanesulfonanilide], for which the inhibition in vivo at 3.2 mg/kg was determined as 66%.

As for `CC(=O)c1ccc(NS(C)(=O)=O)c(Oc2ccc(Cl)cc2Cl)c1` [Example 14, 4'-Acetyl-2'-(2,4-dichlorophenoxy)methanesulfonanilide], the inhibition in vivo at 3.2 mg/kg was found to be 59.4%.

Turning to `CON=C(C)c1ccc(NS(C)(=O)=O)c(Oc2ccc(F)cc2F)c1` [Example 16, 2'-(2,4-difluorophenoxy)-4'-[1-(methoxyimino)ethyl]methanesulfonanilide], the inhibition in vivo at 3.2 mg/kg is 62.5%.

As to `Cc1cc(NS(C)(=O)=O)c(Oc2ccc(F)cc2F)cc1C#N` [Example 20, 4'-Cyano-2'-(2,4-difluorophenoxy)-5'-methylmethanesulfonanilide], the inhibition in vivo at 1 mg/kg was 49.3%.

Turning to `CC(=O)c1ccc(NS(C)(=O)=O)c(Oc2ccc(F)cc2Cl)c1` [Example 25, 4'-Acetyl-2'-(2-chloro-4-fluorophenoxy)methanesulfonanilide], the inhibition in vivo at 10 mg/kg was determined as 81.6%.

In the case of `CC(O)c1ccc(NS(C)(=O)=O)c(Oc2ccc(F)cc2F)c1` (stereo not shown) [Example 32, 2'-(2,4-difluorophenoxy)-4'-(1-hydroxyethyl)methanesulfonanilide], the inhibition in vivo at 10 mg/kg worked out at 63.4%.

As for `CC(=NNC(N)=O)c1ccc(NS(C)(=O)=O)c(Oc2ccc(F)cc2F)c1` [Example 40, 3'-(2,4-difluorophenoxy)-4'-methanesulfonamidoacetophenone semicarbazone], the inhibition in vivo at 10 mg/kg came out at 70.4%.

As for `CC(C)Cc1ccc(C(C)C(=O)O)cc1` (stereo not shown) [Ibuprofen, reference compound], the inhibition in vivo at 10 mg/kg is 24.7%. Further, the inhibition in vivo at 100 mg/kg (dose level 100.0 mg/kg) is 79.4%.

The record behind these values is patent publication US4866091A, “Alkanesulfonanilide derivatives, processes for preparation thereof and pharmaceutical composition comprising the same” (Fujisawa Pharmaceutical Co., Ltd., priority 1986, dated 1989).
